Data as given in paper PMC9911399, “Two distinct binding modes provide the RNA-binding protein RbFox with extraordinary sequence specificity”.
Substitutions are numbered along the chain they refer to; changes in the protein carry UniProt numbers. Some of the results follow.

T1: RBFOX1 RRM RbFoxmut (Fox-RRM*) (Homo sapiens, UniProt Q9NWB1 109-208, R118D;E147R;N151S;E152T)
T1 sequence: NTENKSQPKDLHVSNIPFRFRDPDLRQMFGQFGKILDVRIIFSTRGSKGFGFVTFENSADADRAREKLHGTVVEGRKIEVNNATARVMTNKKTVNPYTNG

B1: GUAUUCC (DNA:RNA)
RNA: GGGAGACCGGAAUUCAGAUUGUCCGUAUUCCUUAAAUCCCGUCGUAGCCACCA
DNA 1: CAATCTGAATTCCGGTCTCCC
DNA 2: TGGTGGCTACGACGGGATT
B2: UAUAGAA (DNA:RNA)
RNA: GGGAGACCGGAAUUCAGAUUGUCCUAUAGAAUUAAAUCCCGUCGUAGCCACCA
DNA 1: CAATCTGAATTCCGGTCTCCC
DNA 2: TGGTGGCTACGACGGGATT
B3: UUGUGAA (DNA:RNA)
RNA: B2 RNA with A26U, U27G, A28U
DNA 1: CAATCTGAATTCCGGTCTCCC
DNA 2: TGGTGGCTACGACGGGATT
B4: CACGAAG (DNA:RNA)
RNA: B2 RNA with U25C, U27C, A28G, G29A, A31G
DNA 1: CAATCTGAATTCCGGTCTCCC
DNA 2: TGGTGGCTACGACGGGATT
B5: GACAGUA (DNA:RNA)
RNA: B2 RNA with U25G, U27C, A30U
DNA 1: CAATCTGAATTCCGGTCTCCC
DNA 2: TGGTGGCTACGACGGGATT
B6: AAGAGGG (DNA:RNA)
RNA: B2 RNA with U25A, U27G, A30G, A31G
DNA 1: CAATCTGAATTCCGGTCTCCC
DNA 2: TGGTGGCTACGACGGGATT
B7: GACCAUG (DNA:RNA)
RNA: B1 RNA with U26A, A27C, U28C, U29A, C30U, C31G
DNA 1: CAATCTGAATTCCGGTCTCCC
DNA 2: TGGTGGCTACGACGGGATT
B8: UCAUUAU (DNA:RNA)
RNA: B1 RNA with G25U, U26C, C30A, C31U
DNA 1: CAATCTGAATTCCGGTCTCCC
DNA 2: TGGTGGCTACGACGGGATT
B9: UUUCAGA (DNA:RNA)
RNA: B2 RNA with A26U, A28C, G29A, A30G
DNA 1: CAATCTGAATTCCGGTCTCCC
DNA 2: TGGTGGCTACGACGGGATT
B10: GGAGCGG (DNA:RNA)
RNA: B1 RNA with U26G, U28G, U29C, C30G, C31G
DNA 1: CAATCTGAATTCCGGTCTCCC
DNA 2: TGGTGGCTACGACGGGATT
B11: UUUCUCG (DNA:RNA)
RNA: B1 RNA with G25U, A27U, U28C, C31G
DNA 1: CAATCTGAATTCCGGTCTCCC
DNA 2: TGGTGGCTACGACGGGATT
B12: CUAAUAU (DNA:RNA)
RNA: B1 RNA with G25C, U28A, C30A, C31U
DNA 1: CAATCTGAATTCCGGTCTCCC
DNA 2: TGGTGGCTACGACGGGATT
B13: CACGGAC (DNA:RNA)
RNA: B2 RNA with U25C, U27C, A28G, A31C
DNA 1: CAATCTGAATTCCGGTCTCCC
DNA 2: TGGTGGCTACGACGGGATT
B14: AUUAAUC (DNA:RNA)
RNA: B1 RNA with G25A, A27U, U28A, U29A, C30U
DNA 1: CAATCTGAATTCCGGTCTCCC
DNA 2: TGGTGGCTACGACGGGATT
B15: GGAACGU (DNA:RNA)
RNA: B1 RNA with U26G, U28A, U29C, C30G, C31U
DNA 1: CAATCTGAATTCCGGTCTCCC
DNA 2: TGGTGGCTACGACGGGATT
B16: UGCAGCA (DNA:RNA)
RNA: B2 RNA with A26G, U27C, A30C
DNA 1: CAATCTGAATTCCGGTCTCCC
DNA 2: TGGTGGCTACGACGGGATT
B17: UGCUUCG (DNA:RNA)
RNA: B1 RNA with G25U, U26G, A27C, C31G
DNA 1: CAATCTGAATTCCGGTCTCCC
DNA 2: TGGTGGCTACGACGGGATT
B18: AAACGUU (DNA:RNA)
RNA: B2 RNA with U25A, U27A, A28C, A30U, A31U
DNA 1: CAATCTGAATTCCGGTCTCCC
DNA 2: TGGTGGCTACGACGGGATT
B19: UCGGGUC (DNA:RNA)
RNA: B2 RNA with A26C, U27G, A28G, A30U, A31C
DNA 1: CAATCTGAATTCCGGTCTCCC
DNA 2: TGGTGGCTACGACGGGATT
B20: UAGUUCG (DNA:RNA)
RNA: B1 RNA with G25U, U26A, A27G, C31G
DNA 1: CAATCTGAATTCCGGTCTCCC
DNA 2: TGGTGGCTACGACGGGATT
B21: AGGGGAC (DNA:RNA)
RNA: B2 RNA with U25A, A26G, U27G, A28G, A31C
DNA 1: CAATCTGAATTCCGGTCTCCC
DNA 2: TGGTGGCTACGACGGGATT
B22: GAACUGG (DNA:RNA)
RNA: B1 RNA with U26A, U28C, C30G, C31G
DNA 1: CAATCTGAATTCCGGTCTCCC
DNA 2: TGGTGGCTACGACGGGATT
B23: UGGUCUC (DNA:RNA)
RNA: B1 RNA with G25U, U26G, A27G, U29C, C30U
DNA 1: CAATCTGAATTCCGGTCTCCC
DNA 2: TGGTGGCTACGACGGGATT
B24: CCUCGCG (DNA:RNA)
RNA: B2 RNA with U25C, A26C, A28C, A30C, A31G
DNA 1: CAATCTGAATTCCGGTCTCCC
DNA 2: TGGTGGCTACGACGGGATT
B25: GUGGUAU (DNA:RNA)
RNA: B1 RNA with A27G, U28G, C30A, C31U
DNA 1: CAATCTGAATTCCGGTCTCCC
DNA 2: TGGTGGCTACGACGGGATT
B26: UGACGCA (DNA:RNA)
RNA: B2 RNA with A26G, U27A, A28C, A30C
DNA 1: CAATCTGAATTCCGGTCTCCC
DNA 2: TGGTGGCTACGACGGGATT
B27: CCUUAAG (DNA:RNA)
RNA: B2 RNA with U25C, A26C, A28U, G29A, A31G
DNA 1: CAATCTGAATTCCGGTCTCCC
DNA 2: TGGTGGCTACGACGGGATT
B28: UGUUCCU (DNA:RNA)
RNA: B1 RNA with G25U, U26G, A27U, U29C, C31U
DNA 1: CAATCTGAATTCCGGTCTCCC
DNA 2: TGGTGGCTACGACGGGATT
B29: GGUACCA (DNA:RNA)
RNA: B2 RNA with U25G, A26G, G29C, A30C
DNA 1: CAATCTGAATTCCGGTCTCCC
DNA 2: TGGTGGCTACGACGGGATT
B30: GGUGUCC (DNA:RNA)
RNA: B1 RNA with U26G, A27U, U28G
DNA 1: CAATCTGAATTCCGGTCTCCC
DNA 2: TGGTGGCTACGACGGGATT
B31: GACCCUU (DNA:RNA)
RNA: B1 RNA with U26A, A27C, U28C, U29C, C30U, C31U
DNA 1: CAATCTGAATTCCGGTCTCCC
DNA 2: TGGTGGCTACGACGGGATT

molecular target: T1, RBFOX1 RRM RbFoxmut (Fox-RRM*); test: EMSA; HiTS-Eq, 1 nM pool, 10 min; buffer printed only for the single-RNA assays: 10 mM Tris pH 7.5, 150 mM NaCl, 3.4 mM EDTA, 0.001% NP-40, 30 C; conditions: tags: His6 N-terminal (pET28a); label: 5' 32P
Procedure, shortened: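 Purified wild-type or mutant RbFox RRM at increasing concentrations was equilibrated with 1 nM of 5′-radiolabelled RNA carrying 7 randomized nucleotides for 10 min in 50 µL. Unbound RNA was separated by 8% native PAGE and sequenced. Relative association constants came from read-count changes of each RNA species compared with the control reaction, normalised to the cognate motif.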

| Binder | binding signal |
| --- | --- |
| B1 | 0.0717 KA relative to UGCAUGU |
| B2 | 0.0862 KA relative to UGCAUGU |
| B3 | 0.133 KA relative to UGCAUGU |
| B4 | 0.124 KA relative to UGCAUGU |
| B5 | 0.0962 KA relative to UGCAUGU |
| B6 | 0.0664 KA relative to UGCAUGU |
| B7 | 0.0827 KA relative to UGCAUGU |
| B8 | 0.121 KA relative to UGCAUGU |
| B9 | 0.0858 KA relative to UGCAUGU |
| B10 | 0.0766 KA relative to UGCAUGU |
| B11 | 0.0926 KA relative to UGCAUGU |
| B12 | 0.1 KA relative to UGCAUGU |
| B13 | 0.0575 KA relative to UGCAUGU |
| B14 | 0.0837 KA relative to UGCAUGU |
| B15 | 0.415 KA relative to UGCAUGU |
| B16 | 0.189 KA relative to UGCAUGU |

| Binder | binding signal |
| --- | --- |
| B17 | 0.213 KA relative to UGCAUGU |
| B18 | 0.0775 KA relative to UGCAUGU |
| B19 | 0.149 KA relative to UGCAUGU |
| B20 | 0.173 KA relative to UGCAUGU |
| B21 | 0.0716 KA relative to UGCAUGU |
| B22 | 0.0601 KA relative to UGCAUGU |
| B23 | 0.137 KA relative to UGCAUGU |
| B24 | 0.154 KA relative to UGCAUGU |
| B25 | 0.189 KA relative to UGCAUGU |
| B26 | 0.152 KA relative to UGCAUGU |
| B27 | 0.126 KA relative to UGCAUGU |
| B28 | 0.0953 KA relative to UGCAUGU |
| B29 | 0.0922 KA relative to UGCAUGU |
| B30 | 0.119 KA relative to UGCAUGU |
| B31 | 0.0429 KA relative to UGCAUGU |
